# Assay results as given in patent US20240239861A1, “GLUCAGON-RECEPTOR SELECTIVE POLYPEPTIDES AND METHODS OF USE THEREOF” (i2O Therapeutics, Inc., priority 2016, published 2024).
# At least one structure is not confirmed: it was looked up by name or label, or the drawing left a doubt. *1 amine or outer side, *2 acyl side, *3 side chain or, on linkers, in order; H or OH if unused. Where a SMILES comes first, the peptide text is derived from it. Side-chain parts run from the residue outwards. The star is where a group is joined. C18 diacid = O=C(O)CCCCCCCCCCCCCCCCC(=O)*; γGlu = O=C(O)[C@H](CCC(=O)[*:2])N[*:1]; AEEA = NCCOCCOCC(=O)O
# Columns and labels:
# human GCGR = human GCGR (Homo sapiens, UniProt P47871); assay: Peptide-receptor mediated cAMP accumulation (LANCE Ultra cAMP) in CHO-K1 cells transfected with human GCGR; type: cell-based; settings: Table 7; glucagon receptor (GluR)
# human GLP-1R = human GLP-1R (Homo sapiens, UniProt P43220); assay: Peptide-receptor mediated cAMP accumulation (LANCE Ultra cAMP) in CHO-K1 cells transfected with human GLP-1R; type: cell-based; settings: Table 7
# Sequence of human GLP-1R (P43220 24-463): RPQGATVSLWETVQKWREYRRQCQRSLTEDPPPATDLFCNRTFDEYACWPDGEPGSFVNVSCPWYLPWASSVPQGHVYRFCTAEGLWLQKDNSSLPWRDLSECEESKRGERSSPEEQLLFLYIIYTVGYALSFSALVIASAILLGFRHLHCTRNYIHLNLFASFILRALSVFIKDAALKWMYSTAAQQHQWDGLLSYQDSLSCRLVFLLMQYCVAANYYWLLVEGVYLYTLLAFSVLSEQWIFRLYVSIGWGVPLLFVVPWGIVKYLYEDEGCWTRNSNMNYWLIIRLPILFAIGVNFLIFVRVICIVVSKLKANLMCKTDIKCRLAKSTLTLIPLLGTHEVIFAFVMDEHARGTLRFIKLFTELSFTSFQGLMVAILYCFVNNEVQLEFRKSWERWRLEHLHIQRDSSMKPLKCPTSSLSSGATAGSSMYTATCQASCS
# Sequence of human GCGR (P47871 26-477): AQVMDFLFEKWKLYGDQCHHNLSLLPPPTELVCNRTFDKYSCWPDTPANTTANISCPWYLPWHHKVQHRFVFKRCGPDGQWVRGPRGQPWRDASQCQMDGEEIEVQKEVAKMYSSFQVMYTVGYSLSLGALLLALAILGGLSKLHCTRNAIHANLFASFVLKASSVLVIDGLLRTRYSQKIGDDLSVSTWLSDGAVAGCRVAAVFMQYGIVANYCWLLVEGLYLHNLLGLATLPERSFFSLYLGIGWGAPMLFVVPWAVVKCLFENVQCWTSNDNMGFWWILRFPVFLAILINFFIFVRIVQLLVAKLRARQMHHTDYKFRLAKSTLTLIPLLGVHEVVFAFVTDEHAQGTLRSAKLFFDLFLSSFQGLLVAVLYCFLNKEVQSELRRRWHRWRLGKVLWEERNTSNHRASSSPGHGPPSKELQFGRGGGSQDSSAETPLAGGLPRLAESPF
structure (smiles),measurement,setting,value
CC(C)C[C@H](NC(=O)[C@H](Cc1ccc(O)cc1)NC(=O)[C@H](CCCCN)NC(=O)[C@H](CO)NC(=O)[C@H](CCCCNC(=O)COCCOCCNC(=O)COCCOCCNC(=O)CC[C@H](NC(=O)CCCCCCCCCCCCCCCCC(=O)O)C(=O)O)NC(=O)[C@H](CC(=O)O)NC(=O)[C@H](CO)NC(=O)[C@@H](NC(=O)[C@H](Cc1ccccc1)NC(=O)[C@@H](NC(=O)CNC(=O)[C@H](CCC(N)=O)NC(=O)[C@H](CO)NC(=O)[C@@H](N)Cc1ccc(O)cc1)[C@@H](C)O)[C@@H](C)O)C(=O)N[C@@H](CC(=O)O)C(=O)N[C@@H](C)C(=O)N[C@@H](C)C(=O)N[C@@H](CCCNC(=N)N)C(=O)N[C@@H](C)C(=O)N[C@@H](CCC(N)=O)C(=O)N[C@@H](CCC(=O)O)C(=O)N[C@@H](Cc1ccccc1)C(=O)N[C@H](C(=O)N[C@@H](CCCCN)C(=O)N[C@@H](Cc1c[nH]c2ccccc12)C(=O)N[C@@H](CC(C)C)C(=O)N[C@@H](CCC(=O)O)C(=O)N[C@@H](CC(=O)O)C(=O)N[C@@H](CCC(=O)O)C(=O)N1CCC[C@H]1C(=O)N[C@@H](CCCCN)C(=O)N[C@@H](CO)C(=O)N[C@@H](CCCCN)C(=O)N[C@@H](CO)C(=O)N1CCC[C@H]1C(=O)N1CCC[C@H]1C(=O)N1CCC[C@H]1C(=O)N[C@@H](CO)C(N)=O)C(C)C [Compound B40] (H-YSQGTFTSDK([AEEA-AEEA-γGlu-C18 diacid])SKYLDAARAQEFVKWLEDEPKSKSPPPS-NH2),GluR pEC50,human GCGR,11.9
same,GLP-1R pEC50,human GLP-1R,7.2
